From PubChem BioAssay AID624418 (National Center for Advancing Translational Sciences (NCATS), 2012)
Hit rate of the full screen: of about 410,000 compounds, about 530 (0.13%) were called active. This list was built around the results that the source calls inconclusive (neither active nor inactive); the mix of calls is not that of the screen. The call rests on the fitted dose curve; in most records, active means well fitted inhibition curve with a large enough effect; inconclusive means small, poorly fitted or top-dose-only effect, or another doubt; inactive means no such curve, though single readings can be large or run the other way. Where the call is inconclusive, the potency comes from a doubtful curve fit.
On the % scale 0 is the no-effect control and ±100 the full control effect; potency means the concentration at half of the fitted maximal effect.

Assay: qHTS of GLP-1 Receptor Inverse Agonists: Cytotox Screen
Settings: HEK293 cAMP-luciferase reporter cells, luminescence, 24 h; activity change, negative = inhibition: at 38.3 µM (top of the series) unless noted
How it was run: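 MLSMR compounds, 24 hr on cells at 37 deg C/5% CO2; luminescence after luciferase reagent (12 min RT). Inhibition counted as the undesired cytotoxic outcome.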
For NC(N)=N/N=C/c1ccc(OCc2ccccc2)cc1, the Potency was inconclusive: 12.6 µM [inhibitor, single point]. In the case of C[n+]1c(-c2ccccc2)cc2c(=Cc3ccccc3)c3ccccc3n21, the Potency is reported as inconclusive: 7.94 µM [inhibitor, partial curve, poor fit]. For Cc1ccc(-c2cc(C(=O)Nc3ccc(S(=O)(=O)Nc4nccs4)cc3)c3ccccc3n2)c(C)c1, the Potency was inconclusive: 28.2 µM [inhibitor, single point]. In the case of CCOC(=O)N1CCC(NC(=S)Nc2ccc3nc(N4CCN(CC)CC4)cc(C)c3c2)CC1, the Potency is reported as inconclusive: 11.2 µM [inhibitor, single point]. For COc1cc(C(=O)NCC(=O)N2CCN(S(=O)(=O)c3ccccc3)CC2)cc(OC)c1OC, the “activity change, negative = inhibition” value was inactive: 3.71%. For CN(C)CCCNC(=O)c1cc(C(=O)c2cccc(Cl)c2Cl)c[nH]1, the “activity change, negative = inhibition” value was inactive: -22.7%. With O=C(N[C@@H](Cc1ccccc1)C(=O)NC1CCCCCC1)c1ccco1 the “activity change, negative = inhibition” value was inactive: 0.749%. For CC(C)c1ccccc1OCC(O)CN(CC(O)COc1cccc2ccccc12)C(C)C (stereo not drawn), the Potency was inconclusive: 20 µM [inhibitor, single point]. With COc1ccccc1C(=O)Nc1ccc(S(=O)(=O)N2CCCCC2c2cccnc2)cc1 (stereo not drawn) the Potency was inconclusive: 10 µM [inhibitor, single point]. In the case of CC(C)=CCc1c2c(c3occ(-c4ccc(O)c(O)c4)c(=O)c3c1O)C=CC(C)(C)O2, the Potency is reported as inconclusive: 28.2 µM [inhibitor, single point]. With Cc1cccnc1NC(=S)NC(=O)c1oc2ccccc2c1C the Potency was inconclusive: 3.16 µM [inhibitor, full curve]. For c1cnn(-c2nc(N3CCOCC3)nc(N3CCOCC3)n2)c1, the Potency was inconclusive: 3.98 µM [inhibitor, full curve]. In the case of O=C(Nc1ccc2c(c1)ncn2C1CCCCC1)c1ccco1, the Potency is reported as inconclusive: 10 µM [inhibitor, single point]. With Cc1noc(C)c1S(=O)(=O)N1CCCC(C(=O)Nc2ccc(C(C)C)cc2)C1 (stereo not drawn) the “activity change, negative = inhibition” value was inactive: -14.4%. In the case of COCCn1c(SCC(=O)Nc2ccc(S(=O)(=O)N(C)C)cc2)nc2ccccc21, the Potency is reported as inconclusive: 7.94 µM [inhibitor, partial curve, poor fit]. For COc1cc(C2C3=C(CC(C)(C)CC3=O)NC3=C2C(=O)c2ccccc23)ccc1O (stereo not drawn), the Potency was inconclusive: 3.16 µM [inhibitor, full curve]. For CC(Cl)C(=O)c1c(N)n(C)c(=O)n(C)c1=O (stereo not drawn), the “activity change, negative = inhibition” value was inactive: -10.7%. With CC1CCN(Cc2c(C(=O)N/N=C/c3cccc(C(F)(F)F)c3)nnn2-c2nonc2N)CC1 the Potency was inconclusive: 11.2 µM [inhibitor, partial curve]. With CC1=CC(C)(C)N2C(=O)C3(N=C(N)NC(Nc4ccccc4)=N3)c3cc(C)cc1c32 (stereo not drawn) the Potency was inconclusive: 12.6 µM [inhibitor, partial curve, poor fit]. In the case of COc1ccc(-c2csc(N(CCCN(C)C)C(=O)c3ccccc3C)n2)cc1, the Potency is reported as inconclusive: 10 µM [inhibitor, partial curve, poor fit]. In the case of COc1ccc(Cl)cc1NC(=O)N1CCC(CN2CCCCCC2)CC1, the “activity change, negative = inhibition” value is reported as inactive: -0.743%. For Cc1ccc(C)c(Nc2nc3nonc3nc2Nc2cccc(C)c2C)c1, the Potency was inconclusive: 7.08 µM [inhibitor, partial curve, poor fit]. With Cc1cccc(CN2C3=NCCCN3c3ccccc32)c1 the Potency was inconclusive: 28.2 µM [inhibitor, single point]. With COC(=O)c1ccc(CSc2nc3ccccc3c(=O)n2-c2cccc(OC)c2)o1 the Potency was inconclusive: 22.4 µM [inhibitor, partial curve, poor fit]. For c1ccc(Nc2nc(Nc3ccccc3)nc(N3CCNCC3)n2)cc1, the Potency was inconclusive: 28.2 µM [inhibitor, single point]. In the case of CCC(C)c1ccc(C(C)NC(=S)NCc2ccc(F)cc2)cc1 (stereo not drawn), the Potency is reported as inconclusive: 6.31 µM [inhibitor, partial curve, poor fit]. With COc1cc(CNCCc2ccc(F)cc2)ccc1OCc1ccc(Cl)nc1 the Potency was inconclusive: 12.6 µM [inhibitor, single point]. With CC(=O)N1c2ccc(Cl)cc2C2C=CCC2C1c1cccc2ccccc12 (stereo not drawn) the Potency was inconclusive: 10 µM [inhibitor, partial curve, poor fit]. With CCc1ccccc1OCCSc1nnc(-c2cc(OC)c(OC)c(OC)c2)o1 the “activity change, negative = inhibition” value was inactive: -7.9%. With COc1cc2nc(Nc3ccc(F)cc3)nc(N)c2cc1OC the Potency was “inactive”. With Oc1ccc(Br)cc1/C=N/Nc1ccccn1 the Potency was inconclusive: 2.24 µM [inhibitor, full curve, poor fit]. For Cc1nn(-c2ccccc2Cl)c(Cl)c1/C=C(\C#N)C(N)=O, the Potency was inconclusive: 8.91 µM [inhibitor, partial curve, poor fit]. For O=C(CSC1=Nc2ccccc2N=C(c2ccc(F)cc2)C1)NCc1ccc(Cl)cc1, the “activity change, negative = inhibition” value was inactive: -3.4%. With Cc1ccc(C(=O)NC(C)(COc2nonc2C)COc2nonc2C)cc1 the Potency was inconclusive: 0.501 µM [inhibitor, full curve, poor fit]. In the case of O=C(NCCSCc1ccco1)Nc1ccc(Cl)cc1, the “activity change, negative = inhibition” value is reported as inactive: 13.4%. With N#Cc1cc2c([nH]c1=S)CCCCCC2 the “activity change, negative = inhibition” value was inactive: 6.45%. With Cc1c(/C=N/NC(=O)c2ccc(O)cc2)c2ccccn2c1C(=O)c1ccc(F)cc1 the Potency was inconclusive: 11.2 µM [inhibitor, partial curve, poor fit]. In the case of Cc1ccc(C(=O)N/N=C/c2ccc(-c3cccc(C(F)(F)F)c3)o2)cn1, the Potency is reported as inconclusive: 2.24 µM [inhibitor, full curve]. For CCc1cccc(C)c1NC(=O)C(CC)n1ncn2c(cc3cc(C)ccc32)c1=O (stereo not drawn), the “activity change, negative = inhibition” value was inactive: 3.86%. With O=C1CN(C(=O)COC(=O)c2ccc(N3CCCCCC3)c([N+](=O)[O-])c2)c2ccccc2N1 the Potency was inconclusive: 28.2 µM [inhibitor, single point]. With CCc1noc(-c2ccc(N(C)Cc3ccc(OC)cc3)c([N+](=O)[O-])c2)n1 the “activity change, negative = inhibition” value was inactive: -27.8%. In the case of CCOc1ccc(CCNC(=O)c2sc3ncccc3c2-n2c(C)ccc2C)cc1, the “activity change, negative = inhibition” value is reported as inactive: 8.96%. For S=c1[nH]cc(-c2ccccc2)n1-c1ccccc1, the Potency was inconclusive: 28.2 µM [inhibitor, single point].
